Experimental data from the supplement of paper PMC8728848.
This is one part of the list.

Assays:
Experiment in all cases: glycan array binding signal (z-score within array); higher = stronger binding
Conditions in all cases: glycan notation: IUPAC condensed, linker removed
Glc(b1-6)Glc = biological target: Glc(b1-6)Glc
How it was run: (§1)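 Glycan array data were curated from 3228 arrays in the Consortium for Functional Glycomics database and kept only where the protein sequence was available. Glycan names were converted to IUPAC-condensed notation, and columns mapping to the same glycan were averaged. The binding signal is a within-array Z-score, averaged across arrays of the same protein sequence at different concentrations or buffers and across linkers. Negative Z-scores can be read as non-binding.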

GlcA(b1-3)Gal = biological target: GlcA(b1-3)Gal
How it was run: as §1

GlcA(b1-3)GlcNAc = biological target: GlcA(b1-3)GlcNAc
How it was run: as §1

GlcA(b1-6)Gal = biological target: GlcA(b1-6)Gal
How it was run: as §1

[1] = biological target: GlcA3S(b1-3)Gal(b1-4)GlcNAc(b1-2)Man
How it was run: as §1

[2] = biological target: GlcA3S(b1-3)Gal(b1-4)GlcNAc(b1-3)Gal(b1-4)Glc
How it was run: as §1

[3] = biological target: GlcNAc(a1-3)Gal(b1-4)GlcNAc
How it was run: as §1

[4] = biological target: GlcNAc(a1-4)Gal(b1-3)GlcNAc
How it was run: as §1

[5] = biological target: GlcNAc(a1-4)Gal(b1-4)GalNAc
How it was run: as §1

[6] = biological target: GlcNAc(a1-4)Gal(b1-4)GlcNAc
How it was run: as §1

[7] = biological target: GlcNAc(a1-4)Gal(b1-4)GlcNAc(b1-3)Gal(b1-4)Glc
How it was run: as §1

[8] = biological target: GlcNAc(a1-4)Gal(b1-4)GlcNAc(b1-3)Gal(b1-4)GlcNAc
How it was run: as §1

[9] = biological target: GlcNAc(a1-4)Gal(b1-4)GlcNAc(b1-3)Gal(b1-4)GlcNAc(b1-3)Gal(b1-4)GlcNAc
How it was run: as §1

[10] = biological target: GlcNAc(a1-4)Gal(b1-4)GlcNAc(b1-3)Gal(b1-4)[Fuc(a1-3)]GlcNAc(b1-3)Gal(b1-4)[Fuc(a1-3)]GlcNAc
How it was run: as §1

[11] = biological target: GlcNAc(a1-6)Gal(b1-4)GlcNAc
How it was run: as §1

[12] = biological target: GlcNAc(b1-2)Gal(b1-3)GalNAc
How it was run: as §1

[13] = biological target: GlcNAc(b1-2)Man(a1-3)[GlcNAc(b1-2)Man(a1-6)]Man(b1-4)GlcNAc(b1-4)GlcNAc
How it was run: as §1

[14] = biological target: GlcNAc(b1-2)Man(a1-3)[GlcNAc(b1-2)Man(a1-6)]Man(b1-4)GlcNAc(b1-4)[Fuc(a1-6)]GlcNAc
How it was run: as §1

[15] = biological target: GlcNAc(b1-2)Man(a1-3)[GlcNAc(b1-4)][GlcNAc(b1-2)Man(a1-6)]Man(b1-4)GlcNAc(b1-4)GlcNAc
How it was run: as §1

[16] = biological target: GlcNAc(b1-2)Man(a1-3)[GlcNAc(b1-4)][GlcNAc(b1-2)Man(a1-6)]Man(b1-4)GlcNAc(b1-4)[Fuc(a1-6)]GlcNAc
How it was run: as §1

[17] = biological target: GlcNAc(b1-2)[GlcNAc(b1-4)]Man(a1-3)[GlcNAc(b1-2)Man(a1-6)]Man(b1-4)GlcNAc(b1-4)GlcNAc
How it was run: as §1

[18] = biological target: GlcNAc(b1-2)[GlcNAc(b1-4)]Man(a1-3)[GlcNAc(b1-4)][GlcNAc(b1-2)Man(a1-6)]Man(b1-4)GlcNAc(b1-4)GlcNAc
How it was run: as §1

[19] = biological target: GlcNAc(b1-2)[GlcNAc(b1-4)]Man(a1-3)[GlcNAc(b1-4)][GlcNAc(b1-2)[GlcNAc(b1-6)]Man(a1-6)]Man(b1-4)GlcNAc(b1-4)GlcNAc
How it was run: as §1

[20] = biological target: GlcNAc(b1-2)[GlcNAc(b1-4)]Man(a1-3)[GlcNAc(b1-4)][GlcNAc(b1-2)[GlcNAc(b1-6)]Man(a1-6)]Man(b1-4)GlcNAc(b1-4)[Fuc(a1-6)]GlcNAc
How it was run: as §1

[21] = biological target: GlcNAc(b1-2)[GlcNAc(b1-6)]Man(a1-6)[GlcNAc(b1-2)Man(a1-3)]Man(b1-4)GlcNAc(b1-4)GlcNAc
How it was run: as §1

[22] = biological target: GlcNAc(b1-2)[GlcNAc(b1-6)]Man(a1-6)[GlcNAc(b1-2)Man(a1-3)]Man(b1-4)GlcNAc(b1-4)[Fuc(a1-6)]GlcNAc
How it was run: as §1

[23] = biological target: GlcNAc(b1-2)[GlcNAc(b1-6)]Man(a1-6)[GlcNAc(b1-4)][GlcNAc(b1-2)Man(a1-3)]Man(b1-4)GlcNAc(b1-4)GlcNAc
How it was run: as §1

GlcNAc(b1-3)Fuc = biological target: GlcNAc(b1-3)Fuc
How it was run: as §1

GlcNAc(b1-3)Gal = biological target: GlcNAc(b1-3)Gal
How it was run: as §1

[24] = biological target: GlcNAc(b1-3)Gal(b1-3)GalNAc
How it was run: as §1

GlcNAc(b1-3)Gal(b1-4)Glc = biological target: GlcNAc(b1-3)Gal(b1-4)Glc
How it was run: as §1

[25] = biological target: GlcNAc(b1-3)Gal(b1-4)GlcNAc
How it was run: as §1

[26] = biological target: GlcNAc(b1-3)Gal(b1-4)GlcNAc(b1-2)Man(a1-3)[GlcNAc(b1-3)Gal(b1-4)GlcNAc(b1-2)Man(a1-6)]Man(b1-4)GlcNAc(b1-4)GlcNAc
How it was run: as §1

[27] = biological target: GlcNAc(b1-3)Gal(b1-4)GlcNAc(b1-2)Man(a1-3)[GlcNAc(b1-3)Gal(b1-4)GlcNAc(b1-2)Man(a1-6)]Man(b1-4)GlcNAc(b1-4)[Fuc(a1-6)]GlcNAc
How it was run: as §1

[28] = biological target: GlcNAc(b1-3)Gal(b1-4)GlcNAc(b1-2)[GlcNAc(b1-3)Gal(b1-4)GlcNAc(b1-6)]Man(a1-6)[GlcNAc(b1-3)Gal(b1-4)GlcNAc(b1-2)Man(a1-3)]Man(b1-4)GlcNAc(b1-4)GlcNAc
How it was run: as §1

[29] = biological target: GlcNAc(b1-3)Gal(b1-4)GlcNAc(b1-3)Gal(b1-4)GlcNAc
How it was run: as §1

[30] = biological target: GlcNAc(b1-3)Gal(b1-4)GlcNAc(b1-3)Gal(b1-4)GlcNAc(b1-2)Man(a1-3)[GlcNAc(b1-3)Gal(b1-4)GlcNAc(b1-3)Gal(b1-4)GlcNAc(b1-2)Man(a1-6)]Man(b1-4)GlcNAc(b1-4)GlcNAc
How it was run: as §1

[31] = biological target: GlcNAc(b1-3)Gal(b1-4)GlcNAc(b1-3)Gal(b1-4)GlcNAc(b1-2)Man(a1-3)[GlcNAc(b1-3)Gal(b1-4)GlcNAc(b1-3)Gal(b1-4)GlcNAc(b1-2)Man(a1-6)]Man(b1-4)GlcNAc(b1-4)[Fuc(a1-6)]GlcNAc
How it was run: as §1

[32] = biological target: GlcNAc(b1-3)Gal(b1-4)GlcNAc(b1-3)Gal(b1-4)GlcNAc(b1-2)[GlcNAc(b1-3)Gal(b1-4)GlcNAc(b1-3)Gal(b1-4)GlcNAc(b1-6)]Man(a1-6)[GlcNAc(b1-3)Gal(b1-4)GlcNAc(b1-3)Gal(b1-4)GlcNAc(b1-2)Man(a1-3)]Man(b1-4)GlcNAc(b1-4)[Fuc(a1-6)]GlcNAc
How it was run: as §1

[33] = biological target: GlcNAc(b1-3)Gal(b1-4)GlcNAc(b1-3)Gal(b1-4)GlcNAc(b1-3)Gal(b1-4)GlcNAc(b1-2)Man(a1-3)[GlcNAc(b1-3)Gal(b1-4)GlcNAc(b1-3)Gal(b1-4)GlcNAc(b1-3)Gal(b1-4)GlcNAc(b1-2)Man(a1-6)]Man(b1-4)GlcNAc(b1-4)GlcNAc
How it was run: as §1

[34] = biological target: GlcNAc(b1-3)Gal(b1-4)GlcNAc(b1-3)Gal(b1-4)GlcNAc(b1-3)Gal(b1-4)GlcNAc(b1-2)Man(a1-3)[GlcNAc(b1-3)Gal(b1-4)GlcNAc(b1-3)Gal(b1-4)GlcNAc(b1-3)Gal(b1-4)GlcNAc(b1-2)Man(a1-6)]Man(b1-4)GlcNAc(b1-4)[Fuc(a1-6)]GlcNAc
How it was run: as §1

[35] = biological target: GlcNAc(b1-3)Gal(b1-4)GlcNAc(b1-3)Gal(b1-4)GlcNAc(b1-3)Gal(b1-4)GlcNAc(b1-2)[GlcNAc(b1-3)Gal(b1-4)GlcNAc(b1-3)Gal(b1-4)GlcNAc(b1-3)Gal(b1-4)GlcNAc(b1-6)]Man(a1-6)[GlcNAc(b1-3)Gal(b1-4)GlcNAc(b1-3)Gal(b1-4)GlcNAc(b1-3)Gal(b1-4)GlcNAc(b1-2)Man(a1-3)]Man(b1-4)GlcNAc(b1-4)[Fuc(a1-6)]GlcNAc
How it was run: as §1

[36] = biological target: GlcNAc(b1-3)Gal(b1-4)GlcNAc(b1-3)Gal(b1-4)GlcNAc(b1-3)Gal(b1-4)GlcNAc(b1-3)Gal(b1-4)GlcNAc(b1-2)Man(a1-3)[GlcNAc(b1-3)Gal(b1-4)GlcNAc(b1-3)Gal(b1-4)GlcNAc(b1-3)Gal(b1-4)GlcNAc(b1-3)Gal(b1-4)GlcNAc(b1-2)Man(a1-6)]Man(b1-4)GlcNAc(b1-4)GlcNAc
How it was run: as §1

[37] = biological target: GlcNAc(b1-3)Gal(b1-4)GlcNAc(b1-3)Gal(b1-4)GlcNAc(b1-3)Gal(b1-4)GlcNAc(b1-3)Gal(b1-4)GlcNAc(b1-2)Man(a1-3)[GlcNAc(b1-3)Gal(b1-4)GlcNAc(b1-3)Gal(b1-4)GlcNAc(b1-3)Gal(b1-4)GlcNAc(b1-3)Gal(b1-4)GlcNAc(b1-2)Man(a1-6)]Man(b1-4)GlcNAc(b1-4)[Fuc(a1-6)]GlcNAc
How it was run: as §1

[38] = biological target: GlcNAc(b1-3)Gal(b1-4)GlcNAc(b1-3)Gal(b1-4)GlcNAc(b1-3)Gal(b1-4)GlcNAc(b1-3)Gal(b1-4)GlcNAc(b1-2)[GlcNAc(b1-3)Gal(b1-4)GlcNAc(b1-3)Gal(b1-4)GlcNAc(b1-3)Gal(b1-4)GlcNAc(b1-3)Gal(b1-4)GlcNAc(b1-6)]Man(a1-6)[GlcNAc(b1-3)Gal(b1-4)GlcNAc(b1-3)Gal(b1-4)GlcNAc(b1-3)Gal(b1-4)GlcNAc(b1-3)Gal(b1-4)GlcNAc(b1-2)Man(a1-3)]Man(b1-4)GlcNAc(b1-4)[Fuc(a1-6)]GlcNAc
How it was run: as §1

B1: PfulAvr4 (Pseudocercospora fuligena) (protein)
chain: HHHHHHDYKDDDDKTYVQDKTPAFVCPAADIKTTKCLGPKDCLYPSPKTCNGYIQCSPADDSYLTGIIHEMPCPSGLLWNDNKKWCDWPENTTCGLVKSAGATEVDATKQGPTPGKYHG
glycan array binding signal (z-score) (Glc(b1-6)Glc): -0.087 | glycan array binding signal (z-score) (GlcA(b1-3)Gal): -0.112 | glycan array binding signal (z-score) (GlcA(b1-3)GlcNAc): -0.03 | glycan array binding signal (z-score) (GlcA(b1-6)Gal): -0.136 | glycan array binding signal (z-score) [1]: -0.138 | glycan array binding signal (z-score) [2]: -0.152 | glycan array binding signal (z-score) [3]: -0.093 | glycan array binding signal (z-score) [4]: -0.049 | glycan array binding signal (z-score) [5]: -0.143 | glycan array binding signal (z-score) [6]: -0.166 | glycan array binding signal (z-score) [7]: -0.142 | glycan array binding signal (z-score) [8]: -0.044 | glycan array binding signal (z-score) [9]: -0.059 | glycan array binding signal (z-score) [10]: -0.155 | glycan array binding signal (z-score) [11]: -0.132 | glycan array binding signal (z-score) [12]: -0.052 | glycan array binding signal (z-score) [13]: -0.111 | glycan array binding signal (z-score) [14]: -0.031 | glycan array binding signal (z-score) [15]: -0.154 | glycan array binding signal (z-score) [16]: -0.17 | glycan array binding signal (z-score) [17]: -0.053 | glycan array binding signal (z-score) [18]: -0.016 | glycan array binding signal (z-score) [19]: -0.126 | glycan array binding signal (z-score) [20]: -0.149 | glycan array binding signal (z-score) [21]: -0.029 | glycan array binding signal (z-score) [22]: -0.087 | glycan array binding signal (z-score) [23]: -0.158 | glycan array binding signal (z-score) (GlcNAc(b1-3)Fuc): -0.145 | glycan array binding signal (z-score) (GlcNAc(b1-3)Gal): -0.069 | glycan array binding signal (z-score) [24]: -0.114 | glycan array binding signal (z-score) (GlcNAc(b1-3)Gal(b1-4)Glc): -0.11 | glycan array binding signal (z-score) [25]: -0.078 | glycan array binding signal (z-score) [26]: -0.09 | glycan array binding signal (z-score) [27]: -0.055 | glycan array binding signal (z-score) [28]: -0.112 | glycan array binding signal (z-score) [29]: -0.193 | glycan array binding signal (z-score) [30]: 0.345 | glycan array binding signal (z-score) [31]: -0.029 | glycan array binding signal (z-score) [32]: -0.049 | glycan array binding signal (z-score) [33]: -0.095 | glycan array binding signal (z-score) [34]: -0.027 | glycan array binding signal (z-score) [35]: -0.07 | glycan array binding signal (z-score) [36]: -0.082 | glycan array binding signal (z-score) [37]: -0.05 | glycan array binding signal (z-score) [38]: -0.032
